± gives the standard deviation of the averaged measurements. The list shows a part of the results.
tested on: PfAP2-EXP AP2 domain (GST-tagged); experiment: gcPBM binding intensity (ln(normalized median fluorescence intensity)); higher = stronger DNA binding
Outline: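 An Agilent 4 × 180k array carrying primer-extended double-stranded 36-bp intergenic genomic probes and negative controls received GST-tagged P. falciparum DNA-binding domains expressed in E. coli, about 25 μg on average, for 1 h. The binding buffer contained 1× PBS, 1% milk, 0.2 mg/ml BSA, 0.5% salmon testes DNA and 0.03% Triton X-100. Binding intensity is the top Masliner-normalised natural-log median intensity across replicate spots of either probe orientation, read after Alexa488 anti-GST antibody staining and a 488 nm scan.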

Q: For “TATTTTATTATACCAAGTACAAAATTTAAATATGAA [XGTACX_site5478]”, which “gcPBM binding intensity (ln)” value is on record?
A: Its value is 8.38 ± 0.36.

Q: For “TTTCACATATATATGGTGCATATTTTATGTGTAAAT [GTGCAC_site9937]”, which “gcPBM binding intensity (ln)” value is on record?
A: The value was 8.545 ± 0.035.

Q: With “TTTGTAACTTCTTTCACACATATATATATATATATA [CACACA_site5603]” as the sequence, how does the “gcPBM binding intensity (ln)” value read?
A: The value was 10.3 ± 0.47.

Q: With “GTGTGCAAAAATTGTTGTACATTATATATAAAAAAA [XGTACX_site3246]” as the sequence, how does the “gcPBM binding intensity (ln)” value read?
A: Its value is 8.945 ± 0.035.

Q: With “TATATAATACAAAAGGGTACATTAACATATTATATA [XGTACX_site3196]” as the sequence, how does the “gcPBM binding intensity (ln)” value read?
A: The value was 8.77 ± 0.57.

Q: “CTATTATCGGTTCCTACACACAAATATAGATGTCTA [CACACA_site7651]” was tested. Which “gcPBM binding intensity (ln)” value did it give?
A: The value was 8.72 ± 0.35.

Q: With “TATTTGCAATATAACACACACAAAAAAAGACTCGGA [CACACA_site6891]” as the sequence, how does the “gcPBM binding intensity (ln)” value read?
A: Its value is 8.8 ± 0.59.

Q: With “CATATATATATATATTGTACACATTTTTTATAAAAA [XGTACX_site2526]” as the sequence, how does the “gcPBM binding intensity (ln)” value read?
A: Its value is 8.86 ± 0.19.

Q: Which “gcPBM binding intensity (ln)” value does the source give for “TATATGTAATATATATGTACGTATAATATAATATTG [XGTACX_site8620]” here?
A: The value was 8.49 ± 0.21.

Q: With “AATTATACATTATATTGTACATATGAATAATTAAAA [XGTACX_site6829]” as the sequence, how does the “gcPBM binding intensity (ln)” value read?
A: Its value is 8.15 ± 0.26.

Q: For “TATATATAAAGCAGTACACACATTTATTTTAGATAC [CACACA_site3387]”, which “gcPBM binding intensity (ln)” value is on record?
A: Its value is 8.59 ± 0.3.

Q: With “AGTGATAATTTAAAAAGTACAAATGAAATTTAGCTA [XGTACX_site3375]” as the sequence, how does the “gcPBM binding intensity (ln)” value read?
A: The value was 8.48 ± 0.38.

Q: “AGAGAGAAAGCTATAACATGCAAAAATTTTTAGAAC [TGCATGCA_site420]” was tested. Which “gcPBM binding intensity (ln)” value did it give?
A: Its value is 9.06 ± 0.48.

Q: Which “gcPBM binding intensity (ln)” value does the source give for “ATACAAATAAAAAAAAAAATTATAAAATTATAAAAT [CACACA_negctrl_site914]” here?
A: The value was 8.19 ± 0.41.

Q: With “AAAATGAACAAACACACACACATATATATATATATA [CACACA_site2403]” as the sequence, how does the “gcPBM binding intensity (ln)” value read?
A: Its value is 10.2 ± 0.44.

Q: For “AAAAATGTATGTATGGTGCAGTATTCATATCATTTT [GTGCAC_site9458]”, which “gcPBM binding intensity (ln)” value is on record?
A: The value was 8.67 ± 0.13.

Q: For “TTATTGTGTAAGATGATTTTCTTCGTCACTTTGAAA [CACACA_negctrl_site1814]”, which “gcPBM binding intensity (ln)” value is on record?
A: Its value is 8.28 ± 0.57.

Q: Which “gcPBM binding intensity (ln)” value does the source give for “TCTTGAAAAAGAATCAATCGGTCGACAAAAAAAAAA [CACACA_negctrl_site1099]” here?
A: Its value is 8.77 ± 0.44.

Q: “GACAAATAATAAAAGGTGCATTATACTTAACAAAAA [GTGCAC_site9624]” was tested. Which “gcPBM binding intensity (ln)” value did it give?
A: The value was 9.05 ± 0.28.

Q: With “AAAAAACACTTAAGGTGTACCTTTTAATATAAGTAT [XGTACX_site2397]” as the sequence, how does the “gcPBM binding intensity (ln)” value read?
A: Its value is 8.38 ± 0.3.

Q: For “TTTTTTAATATTTATTAATTAAACTTTGTTTTTGTT [XGTACX_negctrl_site454]”, which “gcPBM binding intensity (ln)” value is on record?
A: Its value is 8.03 ± 0.34.

Q: Which “gcPBM binding intensity (ln)” value does the source give for “ATATTCTTGTTTAATACACACTGTAGTATTATAGAT [CACACA_site6341]” here?
A: The value was 8.72 ± 0.46.

Q: Which “gcPBM binding intensity (ln)” value does the source give for “TGGAGGATAGTTCACAGTACCCAGTAACTCTACGGA [XGTACX_site4930]” here?
A: The value was 8.72 ± 0.53.

Q: “AAAGTATAAATAAATACACACATATATATATATATA [CACACA_site2892]” was tested. Which “gcPBM binding intensity (ln)” value did it give?
A: The value was 10 ± 0.29.

Q: How did the “gcPBM binding intensity (ln)” value turn out when “AACCATAACTCATATGCACACATAAATATTACATAT [CACACA_site9273]” was run?
A: Its value is 8.67 ± 0.3.

Q: For “TACATTCGGAGTAAAAAAAAATTTATACAATTACTT [XGTACX_negctrl_site29]”, which “gcPBM binding intensity (ln)” value is on record?
A: Its value is 8.21 ± 0.38.

Q: For “GTAAAAAAAAAAAAAAGTACATTATACATATATTTA [XGTACX_site5447]”, which “gcPBM binding intensity (ln)” value is on record?
A: Its value is 8.05 ± 0.38.

Q: How did the “gcPBM binding intensity (ln)” value turn out when “TGTGTATATAAATAATGTACATATATATTTTTTTAT [XGTACX_site7341]” was run?
A: Its value is 8.37 ± 0.29.

Q: Which “gcPBM binding intensity (ln)” value does the source give for “AATAAATATATGTACACACACAAATATATACATATC [CACACA_site1903]” here?
A: The value was 8.54 ± 0.24.

Q: Which “gcPBM binding intensity (ln)” value does the source give for “TTTTATAATGTTGTAGTGCAAAATACGTATATTTAT [GTGCAC_site9826]” here?
A: Its value is 8.64 ± 0.23.

Q: How did the “gcPBM binding intensity (ln)” value turn out when “GAAAATTATATGTGTTGTACACTTGCAACAACTATT [XGTACX_site3637]” was run?
A: Its value is 8.49 ± 0.23.

Q: With “AGATATAAGAAAAGCACACACACACCCAAAAAAAAA [CACACA_site2826]” as the sequence, how does the “gcPBM binding intensity (ln)” value read?
A: The value was 8.87 ± 0.26.

Q: “AAAATATATATTAACACACACACAAAAAAAAAAAAA [CACACA_site1325]” was tested. Which “gcPBM binding intensity (ln)” value did it give?
A: Its value is 8.35 ± 0.52.

Q: Which “gcPBM binding intensity (ln)” value does the source give for “ATATAAATATTTATTAGTACACATTAGTGTAGTTTT [XGTACX_site4493]” here?
A: The value was 8.4 ± 0.35.

Q: “CTATATTATTTTTCTTGTACGTAGGAAATATAGCTA [XGTACX_site6176]” was tested. Which “gcPBM binding intensity (ln)” value did it give?
A: The value was 8.49 ± 0.47.

Q: For “AATATATGGTTTCATTATATTAAATTCAATTTAATG [CACACA_negctrl_site675]”, which “gcPBM binding intensity (ln)” value is on record?
A: The value was 8.18 ± 0.38.

Q: With “GGTGGCTAAATTACAACACACGACGGAATATTATAT [CACACA_site4114]” as the sequence, how does the “gcPBM binding intensity (ln)” value read?
A: The value was 8.65 ± 0.65.

Q: For “AGTATATAATAATTTACACACAAAAAAATATCAGGA [CACACA_site3517]”, which “gcPBM binding intensity (ln)” value is on record?
A: Its value is 8.63 ± 0.38.

Q: “TGATTTATCTATATTTTATAAGTTATTTATTTTTTT [CACACA_negctrl_site1603]” was tested. Which “gcPBM binding intensity (ln)” value did it give?
A: Its value is 8.23 ± 0.21.

Q: How did the “gcPBM binding intensity (ln)” value turn out when “TTTTATTCATTGAGCACACAAAATAAATTATCAAAA [CACACA_site3279]” was run?
A: Its value is 8.64 ± 0.64.

Q: With “ACCGTGGGAAGACACACACACACACCCACATATATA [CACACA_site333]” as the sequence, how does the “gcPBM binding intensity (ln)” value read?
A: Its value is 8.52 ± 0.49.

Q: With “CACAAAAATGTAATCACACATATATATATATATATA [CACACA_site5818]” as the sequence, how does the “gcPBM binding intensity (ln)” value read?
A: Its value is 10.1 ± 0.38.

Q: “AAAAAATGAAAATATTCCAAAATAGAGGGAAATGTA [GTGCAC_negctrl_site572]” was tested. Which “gcPBM binding intensity (ln)” value did it give?
A: The value was 8.62 ± 0.37.

Q: For “TATGTGATAACACGCACACAAATGTATTTAATTTAT [CACACA_site5435]”, which “gcPBM binding intensity (ln)” value is on record?
A: Its value is 8.3 ± 0.39.

Reference: the supplement of paper PMC11417369
